Measurements from patent US11365264B2, “Therapeutic methods and compositions” (INSTITUT PASTEUR, priority 2013, dated 2022).

Legend:
[1] = system: CD4 T cells of healthy donors (HD); assay: IL-4 induced PStat6 nuclear translocation; format: cell-based, human
Experimental: FIG. 11: PLA2sGIB inhibits IL-4 induced PStat6 nuclear translocation in CD4 T cells of healthy donors (HD): Resting CD4 T cells purified from 4 healthy donors were treated for 30 minutes at 37° C. with 3% or 1% of plasma from 5 VP (VP63, VP68, VP69, VP74 and VP75) and from 3 HD used as control. When indicated they were stimulated with 2 nM IL-4 for 15 minutes at 37° C. The percentage of cells positive for nuclear PStat6, with mean and SD, in whole CD4 T cells, before (blue points) and after IL-2 stimulation (red points) are shown. Intracellular localisation of PStat6 was observed using Laser Scanning Confocal Microscopy (LSM 700, Zeiss) after indirect staining with rabbit anti human PStat6 (pY694) followed by goat anti rabbit IgG-AF488. Total CD4 T cells were stained with mouse anti human a-Tubulin followed by goat anti mouse IgG-AF647.
IL-7 and IL-2 are members of the gamma c cytokine family. To confirm that unresponsiveness to this cytokine may be linked to gamma c, we tested the response to IL-4. IL-4 response was measured by following the IL-4 induced NT of pSTAT6 (FIG. 11).

[2] = system: CD4 T cells of healthy donors (HD); assay: IL-2 induced PStat5 nuclear translocation; format: cell-based, human
Experimental: FIG. 10: PLA2sGIB inhibits IL-2 induced PStat5 nuclear translocation in CD4 T cells of healthy donors (HD): Resting CD4 T cells purified from 4 healthy donors were treated for 30 minutes at 37° C. with 3% or 1% of plasma from 5 VP (VP63, VP68, VP69, VP74 and VP75) and from 3 HD used as control. When indicated they were stimulated with 2 nM IL-2 for 15 minutes at 37° C. The percentage of cells positive for nuclear PStat5, with mean and SD, in whole CD4 T cells (a) and in CD4+ CD25+ T cells (b), before (blue points) and after IL-2 stimulation (red points) are shown. Intracellular localisation of PStat5 was observed using Laser Scanning Confocal Microscopy (LSM 700, Zeiss) after indirect staining with rabbit anti human PStat5 (pY694) followed by donkey anti rabbit IgG-Die light 405. Total CD4 T cells were stained with goat anti human b-Tubulin followed by donkey anti goat IgG-AF555. CD25+CD4 T cells were targeted with a mouse anti human CD25 followed by donkey anti mouse IgG-AF488.

B1: PLA2 GIB: secreted phospholipase A2 group IB; in Example 9 applied as plasma of viremic patients (protein, UniProt P04054 23-148, looked up)
Phospholipase A2: AVWQFRKMIKCVIPGSDPFLEYNNYGCYCGLGGSGTPVDELDKCCQTHDNCYDQAKKLDSCKFLLDNPYTHTYSYSCSGSAITCSSKNKECEAFICNCDRNAAICFSKAPYNKAHKNLDTKKYCQS
modifications: in patient plasma
- inhibition of IL-4 response (IL-4 induced NT of pSTAT6) ([1]; 1% plasma): greatly
- inhibition of IL-4 response (IL-4 induced NT of pSTAT6) ([1]; 3% plasma): completely
- inhibition of IL-2-induced NT pSTAT5 ([2]; 1% plasma of viremic patient, whole CD4 T cells): highly significant
- inhibition of IL-2-induced NT pSTAT5 ([2]; 1% plasma of viremic patients, CD4+ CD25+ T reg lymphocytes): completely inhibited
- inhibition of IL-2-induced NT pSTAT5 ([2]; 3% plasma of viremic patient, whole CD4 T cells): total
